Measured values reported in a collection of fitness landscapes (doi:10.1126/science.1257360).
The list shows a part of the results.

B1: PhoQ; a variant is named by its letters at X, in order, P23837 (parent)
chain: MKKLLRLFFPLSLRVRFLLATAAVVLVLSLAYGMVALIGYSVSFDKTTFRLLRGESNLFYTLAKWENNKLHVELPENIDKQSPTMTLIYDENGQLLWAQRDVPWLMKMIQPDWLKSNGFHEIEADVNDTSLLLSGDHSIQQQLQEVREDDDDAEMTHSVAVNVYPATSRMPKLTIVVVDTIPVELKSSYMVWSWFIYVLSANLLLVIPLLWVAAWWSLRPIEALAKEVRELEEHNRELLNPATTRELTSLVRNLNRLLKSERERYDKYRTTLTDLTHSLKTPLXXLQXXLRSLRSEKMSVSDAEPVMLEQISRISQQIGYYLHRASMRGGTLLSRELHPVAPLLDNLTSALNKVYQRKGVNISLDISPEISFVGEQNDFVEVMGNVLDNACKYCLEFVEISARQTDEHLYIVVEDDGPGIPLSKREVIFDRGQRVDTLRPGQGVGLAVAREITEQYEGKIVAGESMLGGARMEVIFGRQHSAPKDE

Variants of: B1
Assay: enrichment ratio after two sorts for PhoP signalling (ratio (wild type AVST 3.29)); higher = more functional
Settings: with PhoP (E. coli)

| Variant | enrichment ratio |
| --- | --- |
| QTVK | ≤ 0.25 |
| PYGD | ≤ 0.25 |
| RGHN | ≤ 0.25 |
| IDPS | ≤ 0.25 |
| VRPG | ≤ 0.25 |
| AVRT | ≤ 0.25 |
| DWCA | ≤ 0.25 |
| KEIR | ≤ 0.25 |
| DEAP | ≤ 0.25 |
| SLCA | 5.43 |
| GHSW | ≤ 0.25 |
| LLHR | ≤ 0.25 |
| MAGA | ≤ 0.25 |
| AKAM | 13.1 |
| DFAH | ≤ 0.25 |
| SFTV | ≤ 0.25 |
| GGWW | ≤ 0.25 |
| QTNG | 7.96 |
| ITSN | ≤ 0.25 |
| IHSV | ≤ 0.25 |
| GTMM | 5.34 |
| KNQH | ≤ 0.25 |
| DLLH | ≤ 0.25 |
| QTGG | ≤ 0.25 |
| SMWE | ≤ 0.25 |

| Variant | enrichment ratio |
| --- | --- |
| GYYN | ≤ 0.25 |
| IHIW | ≤ 0.25 |
| SFAV | ≤ 0.25 |
| EGAF | ≤ 0.25 |
| VYKT | ≤ 0.25 |
| SGGQ | 14.9 |
| AHWE | ≤ 0.25 |
| FSTM | 7.05 |
| TQWS | 10.7 |
| PTCR | ≤ 0.25 |
| RNIY | ≤ 0.25 |
| RDDH | ≤ 0.25 |
| AIND | ≤ 0.25 |
| VQYF | ≤ 0.25 |
| IMAW | ≤ 0.25 |
| NWTC | ≤ 0.25 |
| PFEY | ≤ 0.25 |
| KYTM | ≤ 0.25 |
| NLQS | ≤ 0.25 |
| EMTN | ≤ 0.25 |
| EHDQ | ≤ 0.25 |
| TLAM | 3.04 |
| YAGS | ≤ 0.25 |
| IRPD | ≤ 0.25 |
| RMTL | ≤ 0.25 |

| Variant | enrichment ratio |
| --- | --- |
| FWAY | ≤ 0.25 |
| EPKI | ≤ 0.25 |
| TEYE | ≤ 0.25 |
| TVQC | 4.14 |
| VMFM | ≤ 0.25 |
| LRWP | ≤ 0.25 |
| LTFH | 0.348 |
| FEWD | ≤ 0.25 |
| FRFW | ≤ 0.25 |
| TCCM | 20 |
| RMYQ | ≤ 0.25 |
| FVIH | ≤ 0.25 |
| VQIN | ≤ 0.25 |
| PWGR | ≤ 0.25 |
| KDDH | ≤ 0.25 |
| FTDY | ≤ 0.25 |
| MWCR | ≤ 0.25 |
| WRVS | ≤ 0.25 |
| FMTV | ≤ 0.25 |
| WDCQ | ≤ 0.25 |
| MYVW | ≤ 0.25 |
| IFSN | ≤ 0.25 |
| NLPA | ≤ 0.25 |
| SSMW | ≤ 0.25 |
| FADD | ≤ 0.25 |

| Variant | enrichment ratio |
| --- | --- |
| KSWE | ≤ 0.25 |
| VFPK | ≤ 0.25 |
| MDHT | ≤ 0.25 |
| PRVH | ≤ 0.25 |
| SVFM | ≤ 0.25 |
| SNCL | 14.4 |
| QTST | ≤ 0.25 |
| PADY | ≤ 0.25 |
| EKPV | ≤ 0.25 |
| PQGS | ≤ 0.25 |
| FWNG | ≤ 0.25 |
| PFNR | ≤ 0.25 |
| ETVP | ≤ 0.25 |
| SEQR | ≤ 0.25 |
| SIWD | 14 |
| YMQM | ≤ 0.25 |
| GSQP | ≤ 0.25 |
| QCRL | ≤ 0.25 |
| HWII | ≤ 0.25 |
| SSRM | ≤ 0.25 |
| ICMY | ≤ 0.25 |
| IENA | ≤ 0.25 |
| VFPC | ≤ 0.25 |
| WIAC | ≤ 0.25 |
| RHQS | ≤ 0.25 |

| Variant | enrichment ratio |
| --- | --- |
| MRSI | ≤ 0.25 |
| TQEG | ≤ 0.25 |
| VRTE | ≤ 0.25 |
| YNCI | 0.31 |
| ECGN | ≤ 0.25 |
| YITH | ≤ 0.25 |
| GMCI | 1.01 |
| HSSD | ≤ 0.25 |
| WNCG | ≤ 0.25 |
| QTRT | ≤ 0.25 |
| DVGM | ≤ 0.25 |
| GSRI | ≤ 0.25 |
| HEQS | ≤ 0.25 |
| WSDI | ≤ 0.25 |
| SHTA | ≤ 0.25 |
| PCEE | ≤ 0.25 |
| KHLG | ≤ 0.25 |
| VIVI | ≤ 0.25 |
| YCNM | ≤ 0.25 |
| HPAK | ≤ 0.25 |
| LKDK | ≤ 0.25 |
| NSRD | ≤ 0.25 |
| LSSH | ≤ 0.25 |
| WCFG | ≤ 0.25 |
| QDIK | ≤ 0.25 |

| Variant | enrichment ratio |
| --- | --- |
| SYYF | ≤ 0.25 |
| ITKG | ≤ 0.25 |
| QMVF | ≤ 0.25 |
| DVLD | ≤ 0.25 |
| TFMT | ≤ 0.25 |
| KIQT | ≤ 0.25 |
| ARHS | ≤ 0.25 |
| KMPE | ≤ 0.25 |
| GYWQ | ≤ 0.25 |
| KHAL | ≤ 0.25 |
| VYWH | ≤ 0.25 |
| HDCD | ≤ 0.25 |
| AMRP | ≤ 0.25 |
| LEHS | ≤ 0.25 |
| WWDF | ≤ 0.25 |
| SDAY | ≤ 0.25 |
| NWFE | ≤ 0.25 |
| FRHN | ≤ 0.25 |
| TNEG | ≤ 0.25 |
| AREG | ≤ 0.25 |
| MSQV | ≤ 0.25 |
| ETYH | ≤ 0.25 |
| RFCH | ≤ 0.25 |
| IFNY | ≤ 0.25 |
| PPYQ | ≤ 0.25 |

| Variant | enrichment ratio |
| --- | --- |
| VCLK | ≤ 0.25 |
| PFVT | ≤ 0.25 |
| WLLH | ≤ 0.25 |
| FYVT | ≤ 0.25 |
| TERV | ≤ 0.25 |
| ETTW | ≤ 0.25 |
| CPSY | ≤ 0.25 |
| HMVN | ≤ 0.25 |
| RAEL | ≤ 0.25 |
| MTII | ≤ 0.25 |
| FTNL | ≤ 0.25 |
| PAWK | ≤ 0.25 |
| GHTA | ≤ 0.25 |
| RGLR | ≤ 0.25 |
| ICHI | ≤ 0.25 |
| THPY | ≤ 0.25 |
| VGLF | 0.598 |
| LQHL | ≤ 0.25 |
| ANNQ | 5.32 |
| YCYN | ≤ 0.25 |
| IWWP | ≤ 0.25 |
| LATV | ≤ 0.25 |
| PYSY | ≤ 0.25 |
| TWFV | ≤ 0.25 |
| TCHG | 6.13 |

| Variant | enrichment ratio |
| --- | --- |
| PHNF | ≤ 0.25 |
| NGYY | ≤ 0.25 |
| KEIF | ≤ 0.25 |
| FVWK | ≤ 0.25 |
| PFYA | ≤ 0.25 |
| MCAW | ≤ 0.25 |
| TIEF | 6.64 |
| FWQQ | ≤ 0.25 |
| MQPN | ≤ 0.25 |
| GLER | ≤ 0.25 |
| KYSY | ≤ 0.25 |
| EYNG | ≤ 0.25 |
| NFYE | ≤ 0.25 |
| YNNH | ≤ 0.25 |
| DQIK | ≤ 0.25 |
| KYDA | ≤ 0.25 |
| TIQQ | 16.4 |
| RKPH | ≤ 0.25 |
| HWVP | ≤ 0.25 |
| KPTT | ≤ 0.25 |
